Assay results reported in PubChem BioAssay AID360 (National Center for Advancing Translational Sciences (NCATS), 2006).
The campaign covered roughly 48,000 compounds. About 550 (1.1%) were called active. About 4% were inconclusive and are not listed. No stated cut-off is given here; in the data, active means potency below about 15 µM; inconclusive means mostly about 16 µM to 33 µM; inactive means weaker than that. The list shows a part of the results.

Target: Lysosomal acid glucosylceramidase (Homo sapiens) (UniProt P04062)
Sequence of UniProt P04062 (P04062 whole entry, looked up): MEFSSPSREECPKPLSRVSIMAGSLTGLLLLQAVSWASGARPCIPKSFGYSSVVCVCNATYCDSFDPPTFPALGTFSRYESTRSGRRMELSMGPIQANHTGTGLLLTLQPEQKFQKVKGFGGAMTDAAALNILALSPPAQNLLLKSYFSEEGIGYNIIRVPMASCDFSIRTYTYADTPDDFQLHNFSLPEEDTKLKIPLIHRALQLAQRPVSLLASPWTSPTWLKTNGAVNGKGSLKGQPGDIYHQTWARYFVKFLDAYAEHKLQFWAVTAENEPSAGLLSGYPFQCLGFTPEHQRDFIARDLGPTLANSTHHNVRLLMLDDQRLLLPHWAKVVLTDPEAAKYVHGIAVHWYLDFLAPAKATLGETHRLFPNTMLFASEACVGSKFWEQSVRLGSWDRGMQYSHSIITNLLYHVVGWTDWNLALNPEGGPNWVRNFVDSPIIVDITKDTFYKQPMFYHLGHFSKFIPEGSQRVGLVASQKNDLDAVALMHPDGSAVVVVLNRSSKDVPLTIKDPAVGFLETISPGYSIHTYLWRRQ
Assay: Glucocerebrosidase;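 further: the screen sought inhibitors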
Settings: purified enzyme, resorufin glucoside fluorescence (screen aimed at inhibitors), 20 min
Outline: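 Wild-type enzyme at 0.2 nM final in 50mM citric acid/KH2PO4, 10mM sodium taurocholate, 0.01% tween-20, pH 5.9, with resorufin beta-D-glucopyranoside at 30 uM final. Compounds titrated, 20 min at RT, red fluorescence read; AC50 from titration.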
Potency means the concentration at half of the fitted maximal effect.

Structure (SMILES) | Potency
COC(=O)CN(c1ccccc1OC)S(=O)(=O)c1ccccc1 | inactive: > 76.9 µM
Cn1c(=O)oc2cc(S(=O)(=O)NCCC(=O)NC3CCCc4ccccc43)ccc21 (stereo unspecified) | inactive: > 76.9 µM
Cn1c(SCc2c(F)cccc2Cl)nnc1-c1cnccn1 | inactive: > 76.9 µM
CCCOC(=O)CSc1nnc(-c2ccccc2Cl)o1 | inactive: > 76.9 µM
COC(=O)c1cc2ccsc2n1CC(=O)NCC1CCCO1 (stereo unspecified) | inactive
COc1ccc(C)cc1S(=O)(=O)N(CC(=O)N1CCCC1)c1ccccc1 | inactive: > 76.9 µM
COC(=O)c1ccccc1NC(=O)C1CCN(S(=O)(=O)c2cc(OC)ccc2OC)CC1 | inactive: > 76.9 µM
CCN(CC)C(=O)Cn1c(=O)n(Cc2ccccc2Cl)c2c1c(=O)n(C)c(=O)n2C | inactive: > 76.9 µM
COc1ccc(S(=O)(=O)N2CCCC(C(=O)NCCC3=CCCCC3)C2)cc1 (stereo unspecified) | inactive: > 76.9 µM
C=CCn1c(NC(=O)c2ccccc2)c(C#N)c2nc3ccccc3nc21 | inactive: > 76.9 µM
COc1ccc(OC)c(N2Cc3cc(C)c(C)cc3C2)c1 | inactive: > 76.9 µM
Cc1ccccc1-n1c(SCc2c(C)noc2C)nnc1-c1ccncc1 | inactive: > 76.9 µM
CCOC(=O)c1sc(N)c(C(=O)OCC)c1COC(=O)C1CC(=O)N(Cc2ccco2)C1 (stereo unspecified) | inactive: > 76.9 µM
Nn1cc(-c2ccccc2)nc1SCC(=O)NCCN1C(=O)CSC1=O | inactive: > 76.9 µM
C1CCN=C(Nc2nc3c(s2)CCCC3)CC1 | inactive: > 76.9 µM
CC(=O)N(Cc1cc(=O)[nH]c2ccccc12)c1ccc(C)cc1 | inactive: > 76.9 µM
CC(C)CCn1nnnc1C(c1ccc(N(C)C)cc1)N1CCN(C(=O)c2ccco2)CC1 (stereo unspecified) | inactive: > 76.9 µM
Cc1ccc2c(c1)CCCN2C(=O)c1cccs1 | inactive: > 76.9 µM
Cc1cc(NC(=O)c2ccc(N(C)S(=O)(=O)c3ccccc3)cc2)no1 | active: 15.4 µM
CCOc1ccc(NC(=O)CSc2nc3ccccc3c(=O)n2CCNC(C)=O)cc1 | inactive: > 76.9 µM
CCCCC(=O)N1CCCC(c2nc3c(nnn3Cc3cc(C)ccc3C)c(=O)[nH]2)C1 (stereo unspecified) | inactive
COc1ccc(CC(=O)Nc2ccc(S(=O)(=O)NCC3CCCO3)cc2)cc1 (stereo unspecified) | inactive: > 76.9 µM
COCCCn1c(SCC(=O)NC(C)C)nnc1-c1ccccc1 | inactive: > 76.9 µM

Structure (SMILES) | Potency
Cc1sc2nc(SCC(=O)c3cccs3)n(Cc3ccco3)c(=O)c2c1C | inactive
CC(C)Oc1c(Cl)cc(CNC(C)(C)CO)cc1Cl | inactive: > 76.9 µM
Cc1cccc2cc(COC(=O)C3CCCO3)c(=O)[nH]c12 (stereo unspecified) | inactive: > 76.9 µM
O=C(Nc1c(F)cc(F)cc1Br)C1CCCO1 (stereo unspecified) | inactive: > 76.9 µM
CC(C)C[C@@H]1NC(=O)N(CCN2CCOCC2)C1=O | inactive: > 76.9 µM
O=S1(=O)CC(N2CCOCC2)c2ccccc21 (stereo unspecified) | inactive: > 76.9 µM
COc1cccc(-c2nn(C)c3sc(C(=O)NCc4ccco4)cc23)c1 | inactive: > 76.9 µM
O=c1oc2cc(OCc3nn[nH]n3)ccc2c2c1CCCC2 | inactive: > 76.9 µM
COC(=O)Nc1ccccc1C(=O)N1CCCCC1 | inactive: > 76.9 µM
COc1ccccc1-n1cc(C(=O)NCC(=O)N2CCN(c3ccccc3)CC2)c2ccccc2c1=O | inactive: > 76.9 µM
Cc1csc(SCC(=O)N2CCCC2)n1 | inactive: > 76.9 µM
Cc1occc1C(=O)N1CCN(S(C)(=O)=O)CC1 | inactive: > 76.9 µM
CC(=O)N(Cc1ccccc1)c1ncc2c(n1)c(=O)c(C#N)c1ccccn12 | inactive: > 76.9 µM
O=C(Nc1ccc(NC(=O)C2CC2)nc1)c1cccc(F)c1 | inactive: > 76.9 µM
COc1ccc(-c2noc(CSc3nc4ccccc4c(=O)n3-c3ccccc3)n2)cc1OC | inactive: > 76.9 µM
CCOC(=O)c1c(NC(=O)CN2CCOCC2)sc2c1CCCC2 | inactive: > 76.9 µM
O=C(CSc1nnc(-c2ccco2)n1Cc1ccco1)NCc1cccs1 | inactive: > 76.9 µM
Cc1ccc(-c2cc(C(=O)Nc3c(C)n(C)n(-c4ccccc4)c3=O)[nH]n2)c(O)c1 | inactive: > 76.9 µM
COc1ccc(OC)c(S(=O)(=O)Nc2ccc3oc4c(c3c2)C(=O)CCC4)c1 | inactive: > 76.9 µM
Cc1cc(NC(=O)C2C3C(=O)N(CCC(C)C)C(C(=O)NCc4ccccc4)C34C=CC2(C)O4)no1 (stereo unspecified) | inactive: > 76.9 µM
Cc1ccc(-n2nc(C)c3c2OC(N)=C(C#N)C3c2ccc(F)cc2)cc1 (stereo unspecified) | inactive: > 76.9 µM
CCOC(=O)Cc1csc(NC(=O)CSc2nnc(-c3ccc(C)cc3)o2)n1 | inactive: > 76.9 µM
CC(C)CC(c1nnnn1C(C)(C)C)N1CCN(C2CCCC2)CC1 (stereo unspecified) | inactive: > 76.9 µM

Structure (SMILES) | Potency
O=C(CSc1nc(-c2ccco2)cc(C(F)(F)F)n1)N1CCCc2ccccc21 | inactive: > 76.9 µM
O=S(=O)(N1CCOCC1)n1c(Cc2ccccc2)nc2ccccc21 | inactive: > 76.9 µM
CCOC(=O)C1CCCN(C(=O)CCC(=O)Nc2ccc3nc(N4CCOCC4)cc(C)c3c2)C1 (stereo unspecified) | active: 2.59 µM
Cc1nc2nc(-c3ccccc3)cc(=O)n2[nH]1 | inactive: > 76.9 µM
COc1cc(NC(=O)C2CC(=O)NC3=C2C(=O)CC(C)(C)C3)c(OC)cc1Cl (stereo unspecified) | inactive: > 76.9 µM
Cc1c(C(=O)Nc2ccc(Cl)cn2)oc2ccccc12 | inactive: > 76.9 µM
CCOCCCNC(=O)C1CCN(S(=O)(=O)N(CC(C)C)CC(C)C)CC1 | inactive: > 76.9 µM
COCCN(C(=O)CCC(=O)Nc1ccccn1)C(C(=O)NC1CCCC1)c1ccc(OC)cc1 (stereo unspecified) | inactive: > 76.9 µM
CCCC(C)n1[nH]c(=O)c2c(C)cc(C)nc21 (stereo unspecified) | inactive: > 76.9 µM
Cc1cc(C)n2c(SCC(=O)Nc3cc(C)on3)nnc2n1 | inactive: > 76.9 µM
NC(=O)C1(N2CCCCC2)CCN(c2nc(-c3ccccc3)cs2)CC1 | inactive: > 76.9 µM
COc1ccc(NC(=O)c2cc(C)on2)cc1OC | inactive: > 76.9 µM
NC(=O)CC(NC(=O)OCc1ccccc1)C(=O)O (stereo unspecified) | inactive: > 76.9 µM
Cc1sc2nc(SCc3nc4ccccc4[nH]3)n(Cc3ccco3)c(=O)c2c1C | inactive: > 76.9 µM
O=S(=O)(Nc1ccc2c(c1)nc1n2CCN(Cc2ccccc2)C1)c1ccc(F)cc1 | inactive
Cn1c(=O)cc(OCCCC(=O)NCc2ccccn2)c2ccccc21 | inactive: > 76.9 µM
COc1cccc(CN2CCN(C(=O)c3cccc4ccccc34)CC2)c1OC | inactive: > 76.9 µM
COC(=O)c1cn(CC(=O)NCc2cccs2)c2ccccc12 | inactive: > 76.9 µM
CC(=O)c1c(C)c[nH]c1C | inactive: > 76.9 µM
CCCn1c(SCC(=O)Nc2ccccc2-c2ccccc2)nnc1-c1ccoc1C | inactive: > 76.9 µM
CCn1c(SCC(=O)Nc2ccc3c(c2)OCO3)nnc1-c1ccccc1O | inactive: > 76.9 µM
CCc1nnc(NC(=O)Cc2ccc(OCc3c(C)noc3C)cc2)s1 | inactive: > 76.9 µM
O=C(CN1CCOCC1)NC1CC2CCC1C2 (stereo unspecified) | inactive: > 76.9 µM

Structure (SMILES) | Potency
Cc1ccccc1OCC(=O)OC(C)CN1CCN(C)CC1 (stereo unspecified) | inactive: > 76.9 µM
CCC(=O)c1ccc(OCC(O)CN2CCN(S(=O)(=O)N3CCCCC3)CC2)cc1 (stereo unspecified) | inactive: > 76.9 µM
COc1ccc2c(c1)N1CCN=C1N2C | inactive: > 76.9 µM
O=C(C1CCN(C2CC(=O)N(c3cccc(Cl)c3)C2=O)CC1)N1CCCCCC1 (stereo unspecified) | inactive: > 76.9 µM
O=C(CN1C(=O)COc2ccccc21)NCCCN1CCc2ccccc2C1 | inactive: > 76.9 µM
NC(=O)c1nn(-c2ccccc2)nc1N | inactive: > 76.9 µM
CC(C)CCNC(=O)CN(C)S(=O)(=O)c1cccc2nsnc12 | inactive: > 76.9 µM
CCCn1c(SCC(=O)N2CCCC2)nc2c1c(=O)n(C)c(=O)n2C | inactive: > 76.9 µM
CCOC(=O)Cc1c(C)c2c(C)[nH]nc2oc1=O | inactive: > 76.9 µM
Cn1c(=O)c2c(nc(CN3CCOCC3)n2CCN2CCOCC2)n(C)c1=O | inactive: > 76.9 µM
N#Cc1nc(-c2ccc(OCc3ccccc3)cc2)oc1NCc1ccco1 | inactive: > 76.9 µM
CCOc1ccccc1N1CC(C(=O)Nc2ccccc2N2CCOCC2)CC1=O (stereo unspecified) | inactive: > 76.9 µM
COc1ccc(-c2nc(C#N)c(NCC3CCCO3)o2)cc1OC (stereo unspecified) | inactive: > 76.9 µM
O=C(O)C1C2C=CC(O2)C1C(=O)NCc1ccc2c(c1)OCO2 (stereo unspecified) | inactive: > 76.9 µM
O=C(Nc1ccc2c(c1)OCO2)c1cccc(Cl)c1 | inactive: > 76.9 µM
Clc1ccccc1Cn1nnc2c(NCC3CC3)ncnc21 | inactive: > 76.9 µM
C#CCn1cnc2c(cnn2-c2ccc(C)c(C)c2)c1=O | active: 15 µM
CCn1c(CCC(=O)Nc2cc(F)ccc2C)nc2cc(S(=O)(=O)N(C)C)ccc21 | inactive: > 76.9 µM
CCN1C(=O)c2ccc(C(=O)Nc3nccs3)cc2C1=O | inactive: > 76.9 µM
O=S(=O)(NC1=NCCCCC1)c1cccs1 | inactive: > 76.9 µM
CCOCCCNC(=O)CN1CCN(c2ccc(F)cc2)CC1 | inactive: > 76.9 µM
CCOC(=O)N1CCC(Nc2c(-c3ccc(C)cc3)c(=O)c2=O)CC1 | inactive: > 76.9 µM
